The source gives no read counts; variants with many changes may rest on few reads.
B1: LINE1-full (parent)
chain: UACGUAGGUGGUUUUCCCCUGAUAGUGCUAAGGGGGCCUGGAAGUUUGGACUGGGCAGAGCUCAACACAGCGUGGCAAAGUGGCUGUGGCUAGACUGCCUCUCUGGAUUCCUCGUCACUCAGCAGGGCAUCUCUGAGAGAAAUGCC

Variants of: B1
Assay: self-cleavage, relative activity (ratio to wild type); higher = more cleavage; in vitro, sequencing; the parent is a self-cleaving ribozyme

Variant	self-cleavage
UACGUAGGUGGUUUACCCCUGAUAGUACUAAGGUGGCCUGGAAGUUUGGACUGGGCGGAGCUCAACACAGCGUGGCAAAGUGGCUGUGGCUAGACUGCCUCUCUGGAUUCCUCGUCACUCAGCAGGGCAUCUCUGGGAGAAAUGCC [U15A G27A G34U A57G A136G]	1.84
UACGUAGGUGGUUUACCCCUGAUAGUGCUAAGGGGGCCUGGAAGUUUGGACUGGGCAGAGCUCAACGCAGCGUGGCAAAGUGGCUGCGGCUAGACUGCCUCUCUGGAUUCCUCGUCACUCAGCAGGGCAUCUCUGAGAGAAAUGCC [U15A A67G U87C]	2.3
UACGUAGGUGGUUUACCCCUGAUAGUGCUAAGGGGGCCUGGAAGUUUGGGCUGGGCAGAGCUCAACACAGCGUGGCAAAGUGGCUGUGGCUAGACUGCCUCUCUGGAUUCCUCGUCACUCAGCAGGGCAUCUCUGAGGGAAAUUCC [U15A A50G A138G G144U]	0
UACGUAGGUGGUUUACCCCUGAUAGUGCUAAGGGGGCCUGGAAGUUUGGGCUGGGCAGAGCUCAACACAGCGUGGCAAAGUGGCUGUGGCUAGACUGCCCCUCUGGAUUCCUCGUCACUCAGCAGGGCAUCUCUGAGAGAAAUGCC [U15A A50G U100C]	1.81
UACGUAGGUGGUUUACCCCUGAUAGUACUAAGGGGGCCUGGAAGUUUGGACUGGGCAGAGCUCAACACAGCGUGGCAAAGUGGCUGUGGCUAGACUGCCUCCCUGGAUUCCUCGUCACUCAGCAGGGCAUCUCUGAGAGAAAUGCC [U15A G27A U102C]	1.75
UACGUAGGUGGUUUACCCCUGAUAGUGCUAAAGGGGCCUGGAAGUUUGGACUGGGCAGAGCUCAACACAGCGUGGCAAAGUGGCUGUGGCUAGACUGCCUCUCUGGAUUUCUCGUCACUCAGCAGGGCAUGUCUGAGAGAAAUGCC [U15A G32A C110U C131G]	1.01
UACGUAGGUGGUUUACCCCUGAUAGUGCUAAGGGGGCCUGGAAGUUUGGACUGGGCAGAGCUCAACACGGCGUGGCAAAGUGGCUGUGGCUAGACUGCCUCUCUGGAUUCCCCGUCACUCAGCAGGGCAUCUCUGAGAGUAAUGCC [U15A A69G U112C A140U]	0.16
UACGUAGGUGGUUUACCCCUGAUAGUGCUAAGGGGGCCUGGAAGUUUGGACUGGGCGGAGCUCAACACAGCGUGGCUAAGUGGCUGUGGCUAGACAGCCACUCUGGAUUCCUCGUCACUCAGCAGGGCAUCUCUGAGAGAAAUGCC [U15A A57G A77U U96A U100A]	0.07
UACGUAGGUGGUUUACCCCUGAUAGUGCUAAGGGGGUCUGGAAGUUUGGACUGGGCAGAGCCCAACACAGCGUGGCAAAGUGGCUGUGGCUAGACUGCCUCUCUGGAUUCCUCGUCACUCAGCAGGGCAUCUCUGAGAGAAAUGCC [U15A C37U U62C]	0.05
UACGUAGGUGGUUUACCCCUGAUAGUGCUAAGGGGGCCUGGAAGUUUGGUCUGGGCAGAGCUCAACACAGCGUGGCAAAGUGGCUGUGGCUAGACUGCCUCACUGGAUUCCUCGUCACUCAGCAGGGCAUCUCUGAGGGAAAUGCC [U15A A50U U102A A138G]	1.19
UACGUAGGUGGUUUACCCCUGAUAGUGCUAAGGGGGCCUGGAAGUUUGGACUGGGCAGAGCUCAGCACAGCGUGGCAAAGAGGCAGUGGCUAGACUGCCUCUCUGGAUUCCUCGUCACUCAGCAGGGCAUCUCUGAGAGAAAUGCC [U15A A65G U81A U85A]	0.05
UACGUAGGUGGUUUACCCCUGAUAGUGCUAAGGUGGCCUGGAAGUUUGGACUGGGCAGAGCCCAACACAGCGUGGCAAAGUGGCUGUGGCUAGACUGCCUCUCUGGAUUCCUCGUCACUCAGCAGGGCAUCUCUGAGAGAAAUGCC [U15A G34U U62C]	0.06
UACGUAGGUGGUUUACCCCUGAUAGUGCUAAGGGGUCCUGGAAGUUUGGACUGGGCAGAGCUCAACACGGCGAGGCAAAGUGGCUGUGGCUAGACUGCCUCUCUGGAUUCCUCGUCACUCAGCUGGGCAUCUCUGAGAGAAAUGCC [U15A G36U A69G U73A A124U]	0.24
UACGUAGGUGGUUUACCCCUGAUAGUGCUAAGGGGGCCUGGAAGUUUGGACUGGGCAGAGCUCAACACAGCGUGGCAAAGUGGCUGUGGCUAGACUGCCUCUCUGGAUUCCUUGUCACCCAGCAGGGCAUCUCUGAGAGAUAUGUC [U15A C113U U119C A141U C145U]	0.57
UACGUAGGUGGUUUACCCCUGAUAGUGCUAAGGGGGCCUGGAAGUUUGGACUGGGCAGGGCUCAACACAGCGUGGCAAAGUGGCUGUGGCUAGACUGCCUCUCUGGAUUCCUCGUCACUCAGCAGGGCAUCUCUGAGAGGAAUGCC [U15A A59G A140G]	0.41
UACGUAGGUGGUUUACCCCUGAUAGUGCUAAGGGGGCCUGGAAGUUUGGACUGGGCAGAGCUCAACACAGCGUGGCAAAGUGGCUGUGGCUAGACUGCCUCUCUGGGUUCCUCGUCACUCAGCAGGGCAUCCCUGAGAGAAAUGCC [U15A A107G U132C]	0.84
UACGUAGGUGGUUUACCCCUGAUAGUGCUAAGGGGGCCUGGAAGUUUGGACUGGGCAGAGCUCAACACAGCGUGGCAUAGUGGCUGUGGCUAGACUGCCUCUCUGGAUUCCUCGUCACACAGCAGGGCAUCUCUGAGAGAAAUGCC [U15A A78U U119A]	1.53
UACGUAGGUGGUUUACCCCUGAUAGUGCUAAGGGGGCCUGGAAGUUUUGACUGGGCAGAGCUCAACACAGCGUGGCAAAGUGGCUGUGGCUAGACUGCCUCUCUGGAUUCCUCGUCACUCAGCAGGGCAUCUCUGAGUGAAAUGCC [U15A G48U A138U]	0.59
UACGUAGGUGGUUUACCCCUGAUAAUGCUAAGGGGGCCUGGAAGUUUGGACAGGGCAGAGCUCAACACAGCGAGGCAAAGUGGCUGUGGCUAGACUGCCUCUCUGGAUUCCUCGUCACUCAGCAGGGCAUCUCUGAGAGAAGUGCC [U15A G25A U52A U73A A142G]	1.15
UACGUAGGUGGUUUACCCCUGAUAGUGCUAAGGGGGCCUGGAAGUUUGGACUGGGCAGAGCUCUACACAGCGUGGCAAAGUGGCUGUGGCUAGACUGCCUCUCUGGAUUCCUCGCCACUCAGCAGGGCAUCUCGGAGAGAAAUGCC [U15A A64U U115C U134G]	0.52

Variant	self-cleavage
UACGUAGGUGGUUUACCCCUGAUAGUGCUAAGGGGGCCUGGAAGUUUGGUCUGGGCAGAGCUCGACACAGCGUGGCAAAGUGGCUGUGGCUAGACUGCCUCUCUGGAUUCCUCGUCACUCAGCAGGGCAUCUCCGAGAGAAAUGCC [U15A A50U A64G U134C]	0.23
UACGUAGGUGGUUUACCCCUGAUAGUGCUAAGGGGGCCUGGAAGUUUGGACUGGGCAGAGCUCAACACAGCGUGGCGAAGUGGCUGUGGCUAGACCGCCUCUCUGGAUUCCUCGUCACUCAGCAGGGCAUCUCUGAGAGAAAUGCC [U15A A77G U96C]	0.15
UACGUAGGUGGUUUACCCUUGAUAGUGCUAAGGGGGCCUGGAAGUUUGGACUGGGCAGAGCUCAACACAGCGUGGCAAAGUGGCUGUGGCUAGACUGCCUCUCUGGAUUCCUCGCCACCCAGCAGGGCAUCUCUGAGAGAAAUGCC [U15A C19U U115C U119C]	1.77
UACGUAGGUGGUUUACCCCGGAUAGUGCUAAGGGGGCCUGGAAGUUUGGACUGGGCAGAGCUCAACACAGCGUGGCAAAGUGGCUGUGGCUAGACUGCCUCUCUGGAUGCCUCGUCACUCUGCAGGGCUUCUCUGAGAGAAAUGCC [U15A U20G U109G A121U A129U]	1.93
UACGUAGGUGGUUUACCCCAGAUAGUGCUAAGGGGGCCUGGAAGUUUGGACUGGGCAGUGCUCAGCACAGCGUGGCAAAGUGGCUGUGGCUAGACUGCCUCUCUGGAUUCCUCGUCACUCAGCAGGGCAUCUCUGAGAGAAAUGCC [U15A U20A A59U A65G]	0.14
UACGUAGGUGGUUUACCCCUGAUAGUGCUAAGGGGGCCUGGAAGUUUGGACUGGGCUGAGCUCAACACAGCGUGGCAAAGUGGCUGUGGCUAGACUGCCUCUCUGGAUUCCUCGUCACUCAGCAGGGCAUCUCCGAGAGAAAUGCC [U15A A57U U134C]	0.09
UACGUAGGUGGUUUACCCCUGAUAGUGCUAAGGGGGCCUGGAAGUUUGUACUGGGCAGAGCUCAACACAGCGUGGCAAAGUGGCUGUGGCUAGACUGCCUCUCUGGGUUCCUCGUCACUCAGCAGGGCAUCUCUGAGAGAAAUGCC [U15A G49U A107G]	0.64
UACGUAGGUGGUUUACCCCUGAUAGUGCUAAGGGGGCCUGGAAGUUUGGACUGGGCAGAGCUCGACACAGCGUGGCAAAGUGGCCGUGGCAAGACUGCCUCUCUGGAUUCCUCGUCACUCAGCAGGGCAUCUCUGAGAGAAAUGCC [U15A A64G U85C U91A]	0.63
UACGUAGGUGGUUUACCCCUGAUAGUGCUAAGGGGGCCUGGAAGUUUGGACUGGGCGGAGCUCAACACAGCGUGGCAAAGUAGCUGUGGCUAGACUGCCUCUCUGGAUUCCUCGUCACUCAGCAGGGCAUCCCUGAGAGAAAUGCC [U15A A57G G82A U132C]	0.84
UACGUAGGUGGUUUACCCCUGAUAGUGCUAAGGGGGCCUGGAAGUUUGGAAUGGGCAGAGCUCAACACAGCGUGGCAAAGUGGCUGUGGCUAGACUGCCUCUCUGGAUUCCUCGUCACUCAGCAGGGCAUCUCUGAGAUAAAUGCC [U15A C51A G139U]	1.99
UACGUAGGUGGUUUACCCCUGAUAGUGCUAAGGGGGCCUGGAAGUUUGGACUGGGCAGAGCUCAACACAGCGUGGCUGAGUGGCUGUGGCUAGACUGCCUCUCUGGAUUCCUCGUCACUCAGCAGGGCAUCUCUGAGAGAAACGCC [U15A A77U A78G U143C]	0.71
UACGUAGGUGGUUUACCCCUGACGGUGCUAAGGGGGCCUGGAAGUUUGGACUGGGCAGAGCUCAACACAGCAUGGCAAAGUGGCUGAGGCUAGACAGCCUCUCUGGAUUCCUCGUCACUCAGCAGGGCAUCUCUGAGAGAUAUGCC [U15A U23C A24G G72A U87A U96A A141U]	0.04
UACGUAGGUGGUUUACCCUUGAUAGUGCUAAGGGGGCCUGGAAGUUCGGACUGGGCAGAGCUCAACACAGCGUGGCAAAGUGGCUGUGGCUAGACUGCCUCUCUGGAUUCCUCGUCACUCAGCAGGGCAUCUCUGAGAGAAAUGCC [U15A C19U U47C]	0.47
UACGUAGGUGGUUUACCCCAGAUAGUGCUAAGGGGGCCUGGAAGUUUGGACUGGGCAGAGCUCAACACAGCGUGGCAAAGUGGCUGUGGCUAGACUGCCUCUCUGGAUUCCUCGUCACUCAGCAGGGCUUCUCUGAGAGAAAUGCC [U15A U20A A129U]	0.91
UACGUAGGUGGUUUACCCCUGAUAGUGCUAAAGGGGCCUGGAAGUUUGGACUGGGCAGAGCUCAACACAGCGUGGCGAAGUGGCUGUGGCUAGACUGCCUCUCUGGAUUCCUCGUCACUCAGCGGGGCUUCUCUGAGAGAAAUGCC [U15A G32A A77G A124G A129U]	1.41
UACGUAGGUGGUUUACCCCUGAUAGUGCUAAGGGGGCCUGGAAGUUUGGACUGGGCAGAGCUCAACACUGCGUGGCAAAGUGGCUGUGGCUAGACUGCCUCUCUGGAUUCCUCGUCACUCAGCAGGGCGUCUCUGAGAGAAGUGCC [U15A A69U A129G A142G]	0.56
UACGUAGGUGGUUUACCCCUGACAGUGCUAAGGGGGCCUGGAAGUUUGGACUGGGCAGAGCUCAACACAGCGUGGCAAAGUGGCUGUGGCUAGGCUGCCUCUCUGGAUUCCUCGUCACUCAGCAGGGCAUCUCUGGGAGAAAUGCC [U15A U23C A94G A136G]	0
UACGUAGGUGGUUUACCCAUGAUAGUGCUAAGGGGGCCUGGAAGUUUGGACUGGGCAGAGCUCAACACAGCAUGGCAAAGUGGCUGUGGCUAGACUGCCCCUCUGGAUUCCUCGUCACUCAGCAGGGCAUCUCUGAGAGAAAUGCC [U15A C19A G72A U100C]	1.11
UACGUAGGUGGUUUACACCUGGUAGUGCUAAGGGGGCCUGGAAGUUUGGACUGGGCAGAGCUCAACACAGCGUGGCAAAGUGGCUUUGGCUAGACUGCCUCUCUGGAUUCCUCGUCACUCAACAGGGCAUCUCUGAGAGAAAUGCC [U15A C17A A22G G86U G122A]	0.31

From the RNAGym collection of RNA variant scans (doi:10.7554/elife.90254)
